B1: CPEB3 Ribozyme (parent)
chain: UAACAGGGGGCCACAGCAGAAGCGUUCACGUCGCAGCCCCUGUCAGAUUCUGGUGAAUCUGCGAAUUCUGCUGUAUAUCUC

Read counts are not given, so values of variants with three or more changes are uncertain.

Variants of B1 are the subject of the data set. Put plainly: self-cleavage, relative activity (ratio to wild type); higher = more cleavage; in vitro, sequencing. In short, it runs like this: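 For each CPEB3 ribozyme variant, relative activity is its cleaved/total read fraction divided by the unmutated ribozyme's. Barcoded error-prone PCR libraries were transcribed by T7 RNA polymerase (5 hours, 37°C) and held in DNase I for 15 min before an EDTA stop, with cleavage occurring throughout. Template-switching reverse transcription and Illumina sequencing were used to read the RNAs. A 5-read minimum applied, and results are the mean of three batches.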
A3G C23A A35G A64G U67C U78A: the self-cleavage stood at 0.07. For A3G A5G A20U C23U A56G U69C U78C the value was 0.17; for A3G C23U C29U U43A U67C U72C U80C, 0.1. As to A3G A15U A28U U41A U58C U69A A77U, the self-cleavage is 0.08. For A3G C12U U54C U60A U80C the value was 0.48; for A2U C29A U43C A77G, 0.13. In the case of A3G C44U U58A U60C, the self-cleavage was determined as 0.08. For A3G C4U C38A A57G U66C U78C U80C the value was 0.08; for A3G A56G A75G, 0.42; for A3G C11G C14G A20G U66C, 0.09.

Consider A3G A15G U25C, for which the self-cleavage came to 0.1. For the variant A3G A35C U66C U76C, the self-cleavage worked out at 0.48.

Regarding A3C C23G U31A A45G A57G, the self-cleavage is 0.1. For A3G A15U A65C U66C C71A, the self-cleavage came out at 0.18.

With A3C A13U U26A U41C U58C C79U C81A, the self-cleavage was determined as 0.94. For A3G A18G U31A U41A U43A A45C the value was 0.11; for A3G A15U A45U A47G A75G, 0.34; for A3G A5G U25C U26C U51A A57G U69G, 0. With A3G A5U C14U A18G, the self-cleavage stood at 0.9.

On to A3G A35U G46C, for which the self-cleavage came out at 0.34. Take A3G A21G C32U A56G U72C: the self-cleavage amounted to 0.49.

In the case of A3G A45U A57G U60C, the self-cleavage is 0.14. For A3G A5G A57G the value was 0.64; for A3G A5U G9A G10A A28G U48A, 0.11. As to A2U G7A A64U, the self-cleavage is 0.13.

As for A2U G10C C59A U72C, the self-cleavage came out at 0.09.

Regarding A3G A13U U41C G55A U72C, the self-cleavage came to 0.94.

In the case of A2U C14U A15G U25C U41A A57G U69G, the self-cleavage stood at 0.15. Regarding A3G A28U C39U A47C U58C U67C U72A, the self-cleavage is 0.06. For A3G A18U C37U U43A the value was 0.43. For A3G A65G U76C the value was 0.52; for A3G G6A A28G A47G A57G, 0.34; for A2U C23U U25C U72C, 0.1.

For the variant A3G C27A A45U A64G, the self-cleavage stood at 0.09. For A3C G16A C50U U60G U78C the value was 0.14.

As for A3G A13G A15G C34A U60A A64G, the self-cleavage amounted to 0.16.

On to A3G C12U U25G U51G U54C A57G, for which the self-cleavage was found to be 0.34. For A3C G6A A21U G63U U78G the value was 0.47; for A3G A13G U43A A56G, 0.49. For A3G A18U A35G A56G U58C the value was 0.34. For A3G C12A C38G G42A the value was 0.24.

As to A3G C17A A35U U60A U67C, the self-cleavage is 0.07. For A3G C27U U80C the value was 0.61. As for A2U U26A U49A G61A A64G U72C U80C, the self-cleavage was 0.14. For A3G A35U U69G the value was 0.4. For A3G A5U G9A A28G the value was 0.28; for A3G A18G G30U U54C, 0.06; for A3G G7A A18C G30U U48C A65G, 0.22. For A3G A15G U51C U67A U72A the value was 0.24; for A3G G7A U31A C59A, 0.21. Turning to A3G A35U A64G U80C, the self-cleavage is 0.48. For A3G A15U U69A the value was 0.11.

With A3G A35U G46A U49C, the self-cleavage was 0.11. For A3G A35G G55U U66C the value was 1.09; for A3C A28G U78C, 0.95; for A3C A18U U78C, 0.47. For A3C C11A C39A U41C U78C the value was 0.18. For A3G G6U A20G A28G G36U A65G U78G the value was 0.04. With A2U A35G U76A U80C, the self-cleavage is 1.26. For A3G A18U U69C U78C the value was 0.5; for A2U C17U U31C U51C, 0.08; for A3G C11U U26C U49C A57G, 0.21. For A3C C14U A65G the value was 1; for A3G A15U U58A U76C, 0.24; for A3G A21G A35G U80C, 1.03. For the variant A3G G7A U25C U41C U60A U72A, the self-cleavage stood at 0.09. For A3G A20G A35U C40U A65G the value was 0.39.

Regarding A3G A45G U49C A57G U69G, the self-cleavage was found to be 0.14. In the case of A2U G19C U41C U66C, the self-cleavage was 0.06. With A3G A20G U51A, the self-cleavage turned out to be 1.03. For A3G A28G U80C the value was 0.98; for A3G A35U C39U C40U A47G U60A U80C, 0.14; for A3C U69C U74C, 0.95.

Regarding A3C A35U U66C, the self-cleavage was 0.46. A3C C34A A45U: the self-cleavage turned out to be 0.62. For A3G A57G A65G U67A U69A U72C the value was 0.46; for A3G A13G U31C C34U C38G C62U, 0.12. For A3G G6U A57G U76A the value was 0.72; for A3G A20G U69C, 0.62; for A3G A56U U60A U74A, 0.47. With A3C A57G C59U, the self-cleavage came to 0.67. For A3G C11A U31C A64G A75G C81U the value was 0.13; for A3G A35U G46A U51A A56U U67C G70A, 0.05. For A3G C4U A20G G33A A57G C81U the value was 0.13. For A3C C11G U80A the value was 1.08; for A3G A56G U74C U80C, 1.06; for A2U G24U A28U A35U U72A, 0.05.

For the variant A3G A15G A20U A28G A47G C68A U76C, the self-cleavage turned out to be 0.14. For A3G A20U U26C G42A U43A the value was 0.1. For A2U U26A A45U U60C, the self-cleavage stood at 0.27. For A3G A21G U58C U60A A64U the value was 0.16. For A2U A28U U58C the value was 0.25; for A3G A13G G55U G63U, 0.56; for A3C A28G U60A, 0.28.

On to A3G A28U G46C A57G, for which the self-cleavage was 0.09.

With A3G A5G G7U C44U U48C A65G A77U, the self-cleavage was found to be 0.08. For A3G A15U G16A C59A A65G the value was 0.22; for A2U U41C A77U, 1.04; for A3G G7A C12U A35G U49C U72C, 0.06. For A3G C4U A28U C44U U54C the value was 0.6. A3G A15U A18G A45U: the self-cleavage was determined as 0.17. For A3G G6A G33A U60A, the self-cleavage amounted to 0.04. For A3G C11G U49C the value was 0.14; for A3C U41C U43A U58A, 0.3. Take A3G C17U C40A A64G U72G: the self-cleavage amounted to 0.19.

Take A3G A5G A35G U51A U66C U67C U72C: the self-cleavage was 0.44. For A3G A18G A47U the value was 0.54; for A3G A20U U31C A56G A64G U72A, 0.1. For A3G A20G U49C U54C A64G G73A the value was 0.53; for A3G A35G U66C, 1.17. For A3G C40U A45G U67C U69C C71U the value was 0.1; for A3G A15U U49C U67C, 0.06; for A3G C12A A45G U80C, 0.86. On to A3G A15G U54C U74C, for which the self-cleavage came out at 0.77. For A3G A5U A15G G36U G61C the value was 0.39; for A2U U25C U26C U41C U48C C62A U80A, 0.44.

Consider A2U U26C A45G U58C, for which the self-cleavage came to 0.04.

In the case of A3G A21G A64G, the self-cleavage was found to be 0.6. For A3G A20U G36U the value was 0.36; for A3G A15U A18G, 0.51. As to A3C A45U U49C G53A A56G, the self-cleavage is 1.12. For A3G A13U A18U U31A U60C U78C the value was 0.2; for A3G C38A A45G U60C C62G U66C, 0.16; for A3G C14G U41A U43A, 0.13. For A3G C4U U49A U66A U69C the value was 0.48; for A3C C40A U48C A77G, 0.06; for A3C A15G A18G U25C, 0.58. For A2U A35U U43C U60C, the self-cleavage was 0.21. For A3G A15G G36C U58C U67G, the self-cleavage amounted to 0.12. For A3G A20U A64U, the self-cleavage is 0.67. For A3G A18G U31A U41C A65G A77U the value was 0.19; for A3G A18U A45U, 0.33; for A3G A18U U54C, 0.75. Regarding A3G A21G A35G U41A, the self-cleavage was 0.72. For A3G A13G U41C the value was 0.97; for A3G A5U U26A G52U U72C, 1.09.

As for A3G A18C U60C U72C U74C, the self-cleavage was 0.41. For A3C U41A U43A the value was 0.6.

As to A2U U60C U69A, the self-cleavage was found to be 0.25.

Turning to A3G G6A A64U U80C, the self-cleavage stood at 0.46.

Turning to A2U C4U A45G A56G, the self-cleavage is 0.67.

Take A3G A47G U49C U67C G73C A75C: the self-cleavage was 0.23.

With A3G C11U C32A U41C G63U, the self-cleavage stood at 0.07. For A3G A35G U54C U67A the value was 1.16; for A3G A18U A20U A35U U41A A64G U80G, 0.27; for A3C A5U C11U A18G, 0.64. For A3G A28G U43C C44U U78A the value was 0.57; for A3G A28U U74C A77G, 1.17. For A3G A13C U25C A45C U51A U80G the value was 0.05; for A3G A18G A20G U31A G36C A57C U60C, 0.05. Regarding A3G A13G G19A U48C, the self-cleavage was found to be 0.54. For A3G G6U A13U G52A U69A the value was 0.16; for A3G A13G A15G G30U C50A A57C U58A, 0.08. For A3G A21U U31C C62U U72C the value was 0.07; for A3C A5C G8A A47G U51C A64U U80C, 0.1. For A3G C27A G36A A65G the value was 0.26; for A2U A45U U72A, 0.22. In the case of A3C G33C A45G U54A, the self-cleavage was 0.33. For A3C A21C U26C U49A the value was 0.53; for A3G G6A C11U A20G C23U U54A A64G, 0.04; for A3G A13G A28G U72C, 0.56.

On to A2U C39U U43C U51C A75G U76C, for which the self-cleavage stood at 0.29. For A3G A18U G30U U72C U78A the value was 0.09; for A2U U41C U49C G55C A57G, 0.09; for A3G A5G A18G A28G A64U U78C, 0.35. For A2U A45U U49A the value was 0.3; for A3G A20U A45U A57U G73C, 0.29.

Values taken from the RNAGym collection of RNA variant scans (doi:10.1093/nar/gkz1192).
